According to EPA's CvTdb concentration-time database:
This continues a long series; more values of the same kind are listed elsewhere.

Legend:
Assay in all cases: concentration in plasma after dosing
Rat [1] = settings: dosed: Perfluorodecanoic acid, 20 mg/kg, oral, Female, Harlan Sprague Dawley
Rat [2] = settings: dosed: Perfluorodecanoic acid, 20 mg/kg, oral, Female, Harlan Sprague Dawley; remark: listed apart in the source
Rat [3] = settings: dosed: Perfluorodecanoic acid, 2 mg/kg, oral, Male, Harlan Sprague Dawley
Rat [4] = settings: dosed: Perfluorodecanoic acid, 20 mg/kg, oral, Male, Harlan Sprague Dawley
Rat [5] = settings: dosed: Perfluorodecanoic acid, 2 mg/kg, oral, Male, Harlan Sprague Dawley; remark: listed apart in the source
Rat [6] = settings: dosed: Perfluorodecanoic acid, 10 mg/kg, oral, Female, Harlan Sprague Dawley
Rat [7] = settings: dosed: Perfluorodecanoic acid, 20 mg/kg, oral, Male, Harlan Sprague Dawley; remark: listed apart in the source
Rat [8] = settings: dosed: Perfluorodecanoic acid, 20 mg/kg, oral, Male, Harlan Sprague Dawley; remark: listed apart in the source
Rat [9] = settings: 1848 h; dosed: Perfluorooctane Sulfonate; 20 mg/kg; oral; Female; F344
Rat [10] = settings: 864 h; dosed: Perfluorooctane Sulfonate; 20 mg/kg; oral; Male; Harlan Sprague Dawley
Rat [11] = settings: dosed: Perfluorooctane Sulfonate, 2 mg/kg, oral, Female, Harlan Sprague Dawley
Rat [12] = settings: 3 h; dosed: Fluorotelomer alcohol 8+2; 80 mg/kg; oral; Female; Harlan Sprague Dawley
Rat [13] = settings: dosed: Fluorotelomer alcohol 8+2, 12 mg/kg, oral, Male, Harlan Sprague Dawley
Rat [14] = settings: 48 h; dosed: Fluorotelomer alcohol 8+2; 40 mg/kg; oral; Female; Harlan Sprague Dawley
Rat [15] = settings: dosed: Fluorotelomer alcohol 8+2, 40 mg/kg, oral, Female, Harlan Sprague Dawley
Rat [16] = settings: dosed: Fluorotelomer alcohol 8+2, 48 mg/kg, oral, Male, Harlan Sprague Dawley
Rat [17] = settings: dosed: Perfluorooctanoic acid, 6 mg/kg, oral, Male, Harlan Sprague Dawley
Rat [18] = settings: dosed: Fluorotelomer alcohol 8+2, 48 mg/kg, oral, Male, Harlan Sprague Dawley; remark: listed apart in the source
Rat [19] = settings: 12 h; dosed: Fluorotelomer alcohol 8+2; 80 mg/kg; oral; Female; Harlan Sprague Dawley
Rat [20] = settings: 1 h; dosed: Fluorotelomer alcohol 8+2; 80 mg/kg; oral; Female; Harlan Sprague Dawley
Rat [21] = settings: dosed: Perfluorooctanoic acid, 320 mg/kg, oral, Female, Harlan Sprague Dawley
Rat [22] = settings: dosed: Perfluorooctanoic acid, 6 mg/kg, oral, Male, Harlan Sprague Dawley; remark: listed apart in the source
Rat [23] = settings: 3 h; dosed: Perfluorooctanoic acid; 80 mg/kg; oral; Female; Harlan Sprague Dawley
Rat [24] = settings: 9 h; dosed: Fluorotelomer alcohol 8+2; 80 mg/kg; oral; Female; Harlan Sprague Dawley
Rat [25] = settings: 6 h; dosed: Fluorotelomer alcohol 8+2; 80 mg/kg; oral; Female; Harlan Sprague Dawley
Rat [26] = settings: dosed: Fluorotelomer alcohol 8+2, 80 mg/kg, oral, Female, Harlan Sprague Dawley
Rat [27] = settings: 12 h; dosed: Fluorotelomer alcohol 8+2; 80 mg/kg; oral; Female; Harlan Sprague Dawley; remark: listed apart in the source
Rat [28] = settings: dosed: Perfluorooctanoic acid, 320 mg/kg, oral, Female, Harlan Sprague Dawley; remark: listed apart in the source
Rat [29] = settings: dosed: Fluorotelomer alcohol 8+2, 48 mg/kg, oral, Male, Harlan Sprague Dawley; remark: listed apart in the source
Rat [30] = settings: 3 h; dosed: Fluorotelomer alcohol 8+2; 40 mg/kg; oral; Female; Harlan Sprague Dawley
Rat [31] = settings: dosed: Perfluorooctanoic acid, 48 mg/kg, oral, Male, Harlan Sprague Dawley
Rat [32] = settings: dosed: Fluorotelomer alcohol 8+2, 40 mg/kg, oral, Female, Harlan Sprague Dawley; remark: listed apart in the source
Rat [33] = settings: dosed: Fluorotelomer alcohol 8+2, 160 mg/kg, oral, Female, Harlan Sprague Dawley

O=C(O)C(F)(F)C(F)(F)C(F)(F)C(F)(F)C(F)(F)C(F)(F)C(F)(F)C(F)(F)C(F)(F)F [Perfluorodecanoic acid]
Settings | concentration in plasma [ng/mL]
Rat [1], 6 h | 96300
Rat [1], 864 h | 29600
Rat [2], 0.5 h | 27200
Rat [2], 24 h | 147000
Rat [2], 1848 h | 18300
Rat [3], 1 h | 5520
Rat [3], 192 h | 10600
Rat [3], 2520 h | 838
Rat [4], 1 h | 28500
Rat [4], 192 h | 44700
Rat [4], 2520 h | 6790
Rat [5], 0.5 h | 2630
Rat [5], 24 h | 10700
Rat [5], 1848 h | 1960
Rat [6], 6 h | 47300
Rat [6], 1200 h | 12500
Rat [6], 3360 h | 2940
Rat [7], 1 h | 33300
Rat [7], 192 h | 46300
Rat [7], 2520 h | 6310
Rat [8], 2 h | 48900
Rat [8], 528 h | 24000
Rat [8], 3360 h | 3560

O=S(=O)([O-])C(F)(F)C(F)(F)C(F)(F)C(F)(F)C(F)(F)C(F)(F)C(F)(F)C(F)(F)F [Perfluorooctane Sulfonate]
Settings | concentration in plasma [ng/mL]
Rat [9] | 18500
Rat [10] | 28300

Rat [11]
Settings | concentration in plasma [ng/mL]
5 min | 63
12 h | 7030
1200 h | 3430

O=C(O)C(F)(F)C(F)(F)C(F)(F)C(F)(F)C(F)(F)C(F)(F)C(F)(F)F [Perfluorooctanoic acid]
Settings | concentration in plasma [ng/mL]
Rat [12] | 3070
Rat [14] | 19.6
Rat [19] | 409
Rat [20] | 703
Rat [23] | 230000
Rat [24] | 1640
Rat [25] | 1580
Rat [27] | 325
Rat [30] | 708

Settings | concentration in plasma [ng/mL]
Rat [13], 1 h | 264
Rat [13], 24 h | 778
Rat [15], 0.25 h | 103
Rat [15], 6 h | 882
Rat [16], 48 h | 2620
Rat [16], 192 h | 1740
Rat [17], 1 h | 29100
Rat [17], 12 h | 42700
Rat [17], 864 h | 3520
Rat [18], 48 h | 1610
Rat [18], 192 h | 1010
Rat [21], 3 h | 451000
Rat [21], 24 h | 434000
Rat [22], 0.25 h | 9660
Rat [22], 6 h | 52600
Rat [22], 528 h | 6980
Rat [26], 0.75 h | 987
Rat [26], 48 h | 64.1
Rat [28], 6 h | 341000
Rat [28], 48 h | 56700
Rat [29], 0.25 h | 15.7
Rat [29], 6 h | 1780
Rat [31], 3 h | 228000
Rat [31], 192 h | 72100
Rat [31], 1200 h | 5360
Rat [32], 0.25 h | 112
Rat [32], 6 h | 897
Rat [33], 0.25 h | 68.5
Rat [33], 6 h | 3020
